Data published in the RNAGym collection of RNA variant scans (doi:10.1093/nar/gkz1192).
The source gives no read counts; variants with many changes may rest on few reads.

B1: CPEB3 Ribozyme (parent)
chain: UAACAGGGGGCCACAGCAGAAGCGUUCACGUCGCAGCCCCUGUCAGAUUCUGGUGAAUCUGCGAAUUCUGCUGUAUAUCUC

Variants of: B1
Assay: self-cleavage, relative activity (ratio to wild type); higher = more cleavage; in vitro, sequencing
Outline: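 Relative activity compares each variant's cleaved/total read fraction with that of the unmutated ribozyme. To get these fractions, barcoded CPEB3 ribozyme libraries from rounds of error-prone PCR were transcribed with T7 RNA polymerase for 5 hours at 37°C and then given 15 min of DNase I treatment before EDTA was added. The RNAs were reverse transcribed with template switching and sequenced on Illumina, and DNA sequencing linked barcodes to variants. A minimum of 5 reads applied, and three batches were averaged.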

Variant | self-cleavage
UUACAGGGGGCCACAGCAGAAGCGUUCACGUCGCGGCCCCUGUCAGAUUCUGGUGAAUCUGCGAAUUCUGCUGUAAAUCCC [A2U A35G U76A U80C] | 1.26
UUACAGGGGGCCACAGCAGAAGCGUUCACGUCGCUGCCCCUGCCAGAUUCUGGUGAAUCCGCGAAUUCUGCUGUAUAUCUC [A2U A35U U43C U60C] | 0.21
UUACAGGGGGCCACAGCAGAAGCGUUCACGUCGCUGCCCCUGUCAGAUUCUGGUGAAUCCGAGAAUUCUGCUGUAUAUCUC [A2U A35U U60C C62A] | 0.07
UUACAGGGGGCCACAGCAGAAGCGUUCACGUCGCAGCCCCUGUCGGAUUCUGGUGGAUCUGCGAAUUCUGCUGUAUAUCUC [A2U A45G A56G] | 0.51
UUACAGGGGGCCACAGCAGAAGCGUUCACGUCGCAGCCCCUGUCUGAUUCUGGUGAAUCUGCGGAUUCUGCUGUAUAUCUC [A2U A45U A64G] | 0.24
UUACAGGGGGCCACAGCAGAAGCGUUCACGUCGCAGCCCCUGUCUGAUACUGGUGAAUCUGCGAAUUCUGCUGUAUAUCUC [A2U A45U U49A] | 0.3
UUACAGGGGGCCACAGCAGAAGCGUUCACGUCGCAGCCCCUGUCUGAUUCUGGUGAAUCUGCGAAUUCUGCAGUAUAUCUC [A2U A45U U72A] | 0.22
UUACAGGGGGCCACAGCAGAAGCGUUCACGUCGCAGCCCCUGUCAGGUUCUGGUGAAUCUGCGAACUCUGCCGUAUAUCUC [A2U A47G U66C U72C] | 0.32
UUAAAGGGGGCCACAGCAGGAGCGUUCACGUCGCAGCCCCUGUCAGAUCCUGGUGGAUCUGCGAAUUCUGCUGUAUAUCUC [A2U C4A A20G U49C A56G] | 0.94
UUAUAGGGGGCCACAGCAGAAGCGUUCACGUCGCAGCCCCUGUCGGAUUCUGGUGAAUCUGCGAAUUCUGCUGUAUAUCUC [A2U C4U A45G] | 1.1
UUAUAGGGGGCCACAGCAGAAGCGUUCACGUCGCAGCCCCUGUCGGAUUCUGGUGGAUCUGCGAAUUCUGCUGUAUAUCUC [A2U C4U A45G A56G] | 0.67
UUAUAGGGUGCCACGGCAGAAGCGUUCACGUCGCAGCCCCUGUCAGAUUCUGGUGAAUCUGCGAAUUCUGCUGUAUAUCUC [A2U C4U G9U A15G] | 0.51
UUACAGGGGGGCACAGCAGAAGCGUUCACGUCGCAGCCCCUGUCAGAUUCUGGUGAAUCUGCGAAAUCUGCUGUAUAUCUC [A2U C11G U66A] | 0.27
UUACAGGGGGCAACAGCAGAGGCGUUCACGUCGCAGCCCCUGUCAGAUUCGGGUGAAUCUGCGAAUUCUGCUGAAUAUCUC [A2U C12A A21G U51G U74A] | 1.09
UUACAGGGGGCUACAGCAGAAGCGUUCACGUCGCAGCCCCUGUCAGAUUCUGGUGAAUCUGCGAACUCUGCUGUAUUUCUC [A2U C12U U66C A77U] | 0.59
UUACAGGGGGCCAUGGCAGAAGCGCUCACGUCGCAGCCCCAGUCAGAUUCUGGUGAGUCUGCGAAUUCGGCUGUAUAUCUC [A2U C14U A15G U25C U41A A57G U69G] | 0.15
UUACAGGGGGCCAUAGCCGAAGCGUUCACGUCGCAGCCCCUGUCAGAUUCUGGUGAAUCUGCGGAUUCUGCUGUAUAUCUC [A2U C14U A18C A64G] | 0.1

Variant | self-cleavage
UUACAGGGGGCCACAGUAGAAGCGUUCACGCCGCAGCCCCUGUCAGAUUCCGGUGAAUCUGCGAAUUCUGCUGUAUAUCUC [A2U C17U U31C U51C] | 0.08
UUACAGGGGGCCACAGCAGAAGUGCUCACGUCGCAGCCCCUGUCAGAUUCUGGUGAAUCUGCGAAUUCUGCCGUAUAUCUC [A2U C23U U25C U72C] | 0.1
UUACAGGGGGCCACAGCAGAAGUGUUCACGUCGCAGCCCCUGUCAGACUCUGGUGAAUCUGCGAAUUCUGCUGUAUAUCUC [A2U C23U U48C] | 0.38
UUACAGGGGGCCACAGCAGAAGCGUUCAAGUCGCAGCCCCUGCCAGAUUCUGGUGAAUCUGCGAAUUCUGCUGUAUGUCUC [A2U C29A U43C A77G] | 0.13
UUACAGGGGGCCACAGCAGAAGCGUUCACGUCGGAGCCCAUGUCAGAUACUGGUGAAUCUGCGAAUUCAGCUGUAUAUCUC [A2U C34G C40A U49A U69A] | 0.23
UUACAGGGGGCCACAGCAGAAGCGUUCACGUCGCAGCUCCUGUCAGGUUCUGGUGAAUCUGCGAAUUCUGCUGUAUAUCUC [A2U C38U A47G] | 0.72
UUACAGGGGGCCACAGCAGAAGCGUUCACGUCGCAGCCUCUGCCAGAUUCCGGUGAAUCUGCGAAUUCUGCUGUGCAUCUC [A2U C39U U43C U51C A75G U76C] | 0.29
UUACAGAGGGCCACAGCAGAAGCGUUCACGUCGCAGCCCCUGUCAGAUUCUGGUGAAUCUGCGUAUUCUGCUGUAUAUCUC [A2U G7A A64U] | 0.13
UUACAGGGAGCCACAGCUGAAGCGUUCACGUCGCAGCCCCUGUCAGAUUCUGGUGUAUCUGCGAAUUCUGCUGUAUACCUC [A2U G9A A18U A56U U78C] | 0.04
UUACAGGGGCCCACAGCAGAAGCGUUCACGUCGCAGCCCCUGUCAGAUUCUGGUGAAUAUGCGAAUUCUGCCGUAUAUCUC [A2U G10C C59A U72C] | 0.09
UUACAGGGGGCCACAGCAAAAGCGUUCACGUCGCAGCCCCUGUCAGAUUCUGGUGGACCUGCGAAUUCUGCUGUAUACCUC [A2U G19A A56G U58C U78C] | 0.07
UUACAGGGGGCCACAGCACAAGCGUUCACGUCGCAGCCCCCGUCAGAUUCUGGUGAAUCUGCGAACUCUGCUGUAUAUCUC [A2U G19C U41C U66C] | 0.06
UUACAGGGGGCCACAGCAGAAGCUUUCUCGUCGCUGCCCCUGUCAGAUUCUGGUGAAUCUGCGAAUUCUGCAGUAUAUCUC [A2U G24U A28U A35U U72A] | 0.05
UUACAGGGGGCCACAGCAGAAGCUUUCACGUCGCAGCCCCUGUCGGGUACCGGUGAAUCUGCGAAUUCUGCUGUAUAUCUC [A2U G24U A45G A47G U49A U51C] | 0.12
UUACAGGGGGCCACAGCAGAAGCGCUCGCGUCGCAGCCCCUGUCAGAUUCUGGUGAAUCUGCGAAUUCUGCUGUAUAUCUC [A2U U25C A28G] | 0.11
UUACAGGGGGCCACAGCAGAAGCGCUCACGUCGCAGCCCCUGUCGGAUUCUGGUGAAUCUGCGAAUUCUGCUGUAUAUCUC [A2U U25C A45G] | 0.42
UUACAGGGGGCCACAGCAGAAGCGCUCACGUCGCAGCCCCUGUCAGAUUAUGGUGGAUCUGCGAAUUCUGCUGUAUAUCUC [A2U U25C C50A A56G] | 0.26
